This is an account of results in US20230265152A1, “GLP-1R AGONIST / FGF21 FUSION PROTEINS” (SANOFI, priority 2020, published 2023).

One may read the Tm as the temperature at which the thermal transition is half complete.

Data set [1] concerns female diabetic db/db mice. In words: Blood glucose-lowering effects of multiple subcutaneous doses in fed female diabetic db/db mice. In kind it is in vivo, mouse. Conditions: for blood glucose levels: 24 hour blood glucose profile, s.c. once weekly, vs vehicle or dulaglutide (FIG. 11); for HbA1c increase: by the end of the study (day 36), vs vehicle or dulaglutide (FIG. 12). As to the method:
Female, healthy, lean (BKS.Cg-(lean)/OlaHsd or BKS.Cg-Dock7(m)+/+ Lepr(db)J) and diabetes-prone, obese db/db (BKS.Cg-+Leprdb/+Leprdb/OlaHsd or BKS.CG-m +/+ Lepr(db)/J) mice were ordered from Envigo RMS Inc. or Charles River Laboratories. All animals were group housed in shoebox cages with wood chip bedding and were acclimated for approximately 2 to 3 weeks prior to dosing phase.
Mice were housed under vivarium conditions including a 12 hour light/dark cycle (light phase 04:00 AM - 4:00 PM), a room temperature between 20 - 26° C. and a relative humidity between 30 - 70%. All animals had free access to Greenfield city water and a Purina Fomulab Diet 5008. At the study start mice were approximately 10-12 weeks old.
Blood was collected for a HbA1c and blood glucose measurement on day 9 via tail clips. Blood glucose concentrations were measured using AlphaTRAK glucometers extended range (code 29 strips). Glucometer measurements were taken prior to any other in life activities and were performed in duplicate. If the values differed by more than 20 mg/dL (calculated glucometer value) a third value was recorded. Body mass measurements were collected on days 9 and 15. HbA1c and body mass values were used for block randomization. Animals were assigned to treatment groups (n = 8/group) and to new cages and cage mates (n=4 animals/cage) on day 15 according to block randomization results. The lean group was included in the study as an age-matched, healthy reference group.
Animals were either treated with a subcutaneous injection volume of 5 ml/kg of vehicle (sterile PBS), dulaglutide, SEQ ID NO: 8 or SEQ ID NO: 7 once on days 1, 8, 15, 22, and 27 of the dosing phase. Dosing was completed between 10:00 and 12:00 AM and was adjusted to the most recent body mass recording of each individual. Injection solutions including Trulicity (Dulaglutide Pen) were prepared by addition of sterile PBS to the stock solutions or Pen formulation in order to achieve the appropriate concentrations.
1) Blood glucose concentrations in morning-fed animals: Animals had unlimited access to water and feed during the experiment. Blood glucose was measured prior to any other in life activities between 10:00 to 12:00 AM on days 1, 2, 8, 9, 15, 16, 22, 23, 27, and 28 as well as 24 hours post-dose on days 2, 9, 16, 23, and 28. In addition, on days 1 and 22, blood was collected 1, 2, 3, 4, 6 and 24 hours post-dose (FIG. 11). […] If the values differed by more than 20 mg/dL (calculated glucose value), then a third value was recorded. The Area Under the Curve (AUC) was calculated by the trapezoid method for each individual and time period as indicated. […]

A short description of data set [2]: Pharmacokinetics after single subcutaneous administration in mouse. Conditions: 0.3 mg/kg s.c. In kind it is in vivo, female C57Bl/6 mice. As to the method:
(§1) Plasma concentrations and pharmacokinetic parameters of GLP-1RA/FGF21 Fc fusion proteins were determined after single subcutaneous administration of 0.3 mg/kg in solution to female C57Bl/6 mice or male Cynomolgus monkeys using three different methods. Blood samples were obtained at time points from 30 minutes to 168 hours after dosing.
(§2) Plasma samples were analyzed for the intact FGF21 part of the fusion proteins with an ELISA kit (F1231-K01, Eagle Biosciences, USA). The assay utilized the two-site sandwich technique with two selected antibodies that bound to different epitopes of human intact FGF21. One of the antibodies specifically bound to the N-terminal amino acids (aa 29-35) of human FGF21, and the other antibody specifically bound to the C-terminus (aa 203-209) of human FGF21. Assay standards, controls and unknown samples were added directly to wells of microplate that was coated with an anti-human FGF21 (aa 29-35)-specific antibody. Simultaneously, a horseradish peroxidase conjugated anti-human FGF21 (aa 203-209)-specific antibody was added to each well. After the first incubation period, the antibody on the walls of the microtiter wells captured human FGF21 in the sample and unbound protein in each microtiter well was washed away. A “sandwich” of “anti-FGF21 antibody-human intact FGF21-HRP conjugated tracer antibody” was formed. The unbound tracer antibody was removed in the subsequent washing step. For the detection of the immunocomplex, the well was then incubated with a substrate solution in a timed reaction and then measured in a spectrophotometric microplate reader. The enzymatic activity of the immunocomplex bound to human intact FGF21 on the wall of the microtiter wells was directly proportional to the amount of intact FGF21 in the sample.
The concentration of the full-length GLP-1RA/FGF21 Fc fusion proteins in plasma were determined utilizing an ELISA method. The N-terminus of the fusion proteins were captured by a mouse monoclonal anti-GLP1 antibody (Mesoscale Discovery, MSD). Following blocking the plates with 150 µL of Blocker A (MSD) for 1 hour at room temperature (RT) with gentle shaking and washing 3 times with 300 µL wash buffer 50 µL of diluted plasma samples (standards and PK study samples) were added to each well and the plates were incubated for 1 hour at RT with gentle shaking. […] Following washing 3 times with 300 µL PBS-T 150 µL read buffer was added to the wells.
Plasma samples were analyzed for the intact GLP-1 part of the fusion proteins with a GLP-1 ELISA method. […] Following washing 3 times with 300 µL PBS-T, 150 µL read buffer was added to the wells.
The pharmacokinetic parameters were calculated by the program WinNonlin 6.4 using a non-compartmental model and linear trapezoidal interpolation calculation. […]

A short description of data set [3]: Conformational and thermal stability on UNit (intrinsic fluorescence BCM and static light scattering). In kind it is physicochemical. To be noted: for Tagg: UNit SLS 266 nm, 5 mg/mL in phosphate buffer pH 7.4; for Tm: UNit, 5 mg/mL in phosphate buffer pH 7.4, 20 to 95° C. at 0.3° C./min. Here is the method: Conformational stability and propensity to aggregate was determined simultaneously for the GLP-1RA/FGF21 Fc fusion proteins using a UNit (Unchained Labs, CA, USA). The UNit combines the analysis of intrinsic fluorescence of a protein to detect unfolding of the protein and a Static Light Scattering (SLS) measurement in order to investigate the aggregation behavior.
Data were acquired for the fusion proteins at a concentration of 5 mg/mL formulated in phosphate buffer at pH 7.4. A volume of 9 µL of each sample were loaded into a UNi capillary holder and analyzed in triplicate on the UNit. The temperature was increased from 20 to 95° C. at a constant linear rate of 0.3° C./min. The BaryCentric Mean (BCM) indicating the intrinsic fluorescence and SLS signals detected with a 266 nm laser were plotted against the applied temperature in order to obtain melting temperatures (Tm) and aggregation onset temperatures (Tagg). Data were analyzed using the UNit Analysis software v.

Data set [4] is described as follows: Pharmacokinetics after single subcutaneous administration in non-human primate. To be noted: 0.3 mg/kg s.c. In kind it is in vivo, male Cynomolgus monkeys. Here is the method:
as §1, §2
The concentration of the full-length GLP-1RA/FGF21 Fc fusion proteins in plasma were determined utilizing an ELISA method. The N-terminus of the fusion proteins were captured by a mouse monoclonal anti-GLP1 antibody (Mesoscale Discovery, MSD). Following blocking the plates with 150 µL of Blocker A (MSD) for 1 hour at room temperature (RT) with gentle shaking and washing 3 times with 300 µL wash buffer 50 µL of diluted plasma samples (standards and PK study samples) were added to each well and the plates were incubated for 1 hour at RT with gentle shaking. Following washing 3 times with 300 µL wash buffer, 50 µL of the primer detection antibody (C-terminus rabbit anti-FGF21 antibody, Pineda Antikörper-Service, Berlin, Germany) was added to each well and the plates were incubated for 1 hour at RT. Following washing 3 times with 300 µL wash buffer, 25 µL goat-anti-rabbit antibody (Sulfo-Tag labelled, MSD) diluted in PBS-Tween 0.05% (PBS-T) was added to each well and the plates were incubated for 1 hour at RT. Following washing 3 times with 300 µL PBS-T 150 µL read buffer was added to the wells.
Plasma samples were analyzed for the intact GLP-1 part of the fusion proteins with a GLP-1 ELISA method. The ELISA plates were coated with mouse monoclonal anti-GLP-1 antibody (Mesoscale Discovery, MSD). Following blocking with 150 µL of Blocker A (MSD) for 1 hour at room temperature (RT) with gentle shaking and washing 3 times with 300 µL PBS-T, 50 µL of diluted plasma samples (standards and PK study samples) were added to each well and the plates were incubated for 1 hour at RT with gentle shaking. Following washing 3 times with 300 µL PBS-T, 25 µL of goat anti-human IgG diluted (1/3,333) in PBS-T (Sulfo-Tag labelled, MSD) was added to each well and the plates were incubated for 1 hour at RT. Following washing 3 times with 300 µL PBS-T, 150 µL read buffer was added to the wells.
The pharmacokinetic parameters were calculated by the program WinNonlin 6.4 using a non-compartmental model and linear trapezoidal interpolation calculation. The results are presented in FIGS. 7 and 8 as well as in Table 6.

B1: SEQ ID NO: 8: GLP-1RA/FGF21 Fc fusion protein (protein)
chain: GHGEGTFTSDKSKQLEEEAVRLFIEWLKAGGPKKIRYSGGGGGGGSGGGGSGGGGSA[in this place human IgG1 Fc with changes]GGGSGSAHPIPDSSPLLQFGGQVRQRYLYTDDACQTEAHLEIREDGTVGGAADQSPESLLQLKALKPGVIQILGVKTSRFLCQRPDGALYGSLHFDPEACSFRELLLEDGYNVYQSEAHGLPLHLPGCKSPHRDPAPRGPARFLPLPGLPPAPPEPPGILAPQPPDVGSSDPLSMVYPSQGRSPSYAS
modifications: Fusion Protein
notes: GLP-1RA/FGF21 Fc fusion protein
Take B1: in data set [1], the blood glucose levels entry was “the lowering effect on blood glucose levels was significantly greater than in vehicle or dulaglutide treated animals” and the HbA1c increase result is “more pronounced suppression of HbA1c increase by the end of the study than vehicle or dulaglutide treated animals”.

B2: 8 (protein)
chain: GHGEGTFTSDKSKQLEEEAVRLFIEWLKAGGPKKIRYSGGGGGGGSGGGGSGGGGSA[in this place human IgG1 Fc with changes]GGGSGSAHPIPDSSPLLQFGGQVRQRYLYTDDACQTEAHLEIREDGTVGGAADQSPESLLQLKALKPGVIQILGVKTSRFLCQRPDGALYGSLHFDPEACSFRELLLEDGYNVYQSEAHGLPLHLPGCKSPHRDPAPRGPARFLPLPGLPPAPPEPPGILAPQPPDVGSSDPLSMVYPSQGRSPSYAS
modifications: Fusion Protein
As to B2, the results for the t½ mouse in data set [2] (assay FGF21 intact) and in data set [2] (assay full-length) were 17.9 h and 13.3 h, respectively. Moreover, in data set [3], the Tagg was found to be 65.3 °C. The Tm in data set [3] was 68.6 °C. The t½ monkey in data set [4] (assay FGF21 intact) amounted to 33.6 h; in data set [4] (assay GLP-1 intact), 23.7 h; in data set [4] (assay full-length), 27.6 h.

B3: 5 (protein)
chain: GHGEGTFTSDKSKQLEEEAVRLFIEWLKAGGPKKIRYSGGGGGGGSGGGGSGGGGSA[in this place human IgG4 Fc with changes]GGGSGSAHPIPDSSPLLQFGGQVRQRYLYTDDACQTEAHLEIREDGTVGGAADQSPESLLQLKALKPGVIQILGVKTSRFLCQRPDGALYGSLHFDPEACSFRELLLEDGYNVYQSEAHGLPLHLPGCKSPHRDPAPRGPARFLPLPGLPPAPPEPPGILAPQPPDVGSSDPLSMVYPSQGRSPSYAS
modifications: Fusion Protein
Turning to B3, in data set [3], the Tagg was 63.2 °C and the Tm amounted to 62.6 °C.

B4: SEQ ID NO: 7: GLP-1RA/FGF21 Fc fusion protein (protein)
chain: GHGEGTFTSDKSKQLEEEAVRLFIEWLKAGGPKKIRYSGGGGGGGSGGGGSGGGGSA[in this place human IgG1 Fc with changes]GGGSGSAHPIPDSSPLLQFGGQVRQRYLYTDDACQTEAHLEIREDGTVGGAADQSPESLLQLKALKPGVIQILGVKTSRFLCQRPDGALYGSLHFDPEACSFRELLLEDGYNVYQSEAHGLPLHLPGCKSPHRDPAPRGPARFLPLPGLPPAPPEPPGILAPQPPDVGSSDPLSMVGSQGRSPSYAS
modifications: Fusion Protein
notes: as for B1
In the case of B4, in data set [1], the blood glucose levels result is reported as “the lowering effect on blood glucose levels was significantly greater than in vehicle or dulaglutide treated animals” and the HbA1c increase result was “more pronounced suppression of HbA1c increase by the end of the study than vehicle or dulaglutide treated animals”.

B5: 3 (protein)
chain: GHGEGTFTSDKSKQLEEEAVRLFIEWLKAGGPKKIRYSGGGGGGGSGGGGSGGGGSA[in this place human IgG4 Fc with changes]GGGSGSAHPIPDSSPLLQFGGQVRQRYLYTDDACQTEAHLEIREDGTVGGAADQSPESLLQLKALKPGVIQILGVKTSRFLCQRPDGALYGSLHFDPEACSFRELLLEDGYNVYQSEAHGLPLHLPGCKSPHRDPAPRGPARFLPLPGLPPAPPEPPGILAPQPPDVGSSDPLSMVGSQGRSPSYAS
modifications: Fusion Protein
For the molecule B5, in data set [3], the Tagg is 65.3 °C and the Tm was found to be 63.9 °C.

B6: 7 (protein)
chain: GHGEGTFTSDKSKQLEEEAVRLFIEWLKAGGPKKIRYSGGGGGGGSGGGGSGGGGSA[in this place human IgG1 Fc with changes]GGGSGSAHPIPDSSPLLQFGGQVRQRYLYTDDACQTEAHLEIREDGTVGGAADQSPESLLQLKALKPGVIQILGVKTSRFLCQRPDGALYGSLHFDPEACSFRELLLEDGYNVYQSEAHGLPLHLPGCKSPHRDPAPRGPARFLPLPGLPPAPPEPPGILAPQPPDVGSSDPLSMVGSQGRSPSYAS
modifications: Fusion Protein
Consider B6, for which the t½ mouse in data set [2] (assay FGF21 intact) is given as 14.2 h; in data set [2] (assay full-length), 13.9 h. The molecule also registered a Tagg in data set [3] of 66.1 °C. Moreover, the midpoint of thermal melting (Tm) in data set [3] turned out to be 68.7 °C. The t½ monkey in data set [4] (assay FGF21 intact) is 31.7 h; in data set [4] (assay GLP-1 intact) it was 21.3 h; in data set [4] (assay full-length), 28.7 h.
